# According to article PMC7819943, “Rice protein-binding microarrays: a tool to detect cis-acting elements near promoter regions in rice”:
# This is one part of the list.
# Target: T1, OsWOX13 (Oryza sativa, UniProt Q5QMM3 1-267)
# T1 sequence: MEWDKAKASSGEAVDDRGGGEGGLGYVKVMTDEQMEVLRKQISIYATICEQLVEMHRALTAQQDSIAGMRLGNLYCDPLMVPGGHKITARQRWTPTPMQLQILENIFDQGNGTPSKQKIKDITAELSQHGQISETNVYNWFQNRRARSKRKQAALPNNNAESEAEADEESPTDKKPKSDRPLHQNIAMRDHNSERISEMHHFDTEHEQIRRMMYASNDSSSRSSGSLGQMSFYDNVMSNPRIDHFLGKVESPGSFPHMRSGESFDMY
# Test: protein-binding microarray (RPBM); PBS, 2% BSA, 51.3 ng/ul salmon testes DNA, 50 uM zinc acetate, 200 nM TF, 25 C, 1 h; high values mean tight binding
# Conditions: protein: recombinant; tags: N-terminal polyhistidine and DsRed monomer fusion (pET32a); label: CyDye5-dUTP incorporated in the synthesized complementary strand; 3' TTTTT single-stranded linker to array surface; dsDNA, one strand shown
# Outline: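 An Axon 4000B scanner gave the binding signal as per-feature fluorescence intensity in arbitrary units. This followed washing of a custom Agilent array that had been incubated for 1 h at 25 °C with 200 nM protein in PBS, 2% BSA, salmon testes DNA and 50 µM zinc acetate. The proteins were transcription factors fused at the N-terminus to polyhistidine and DsRed, expressed in E. coli BL21-CodonPlus and purified on Ni–NTA.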
row,Sequence,binding signal
1,TGGTATGATTTGAAATGGTATTAATCTGAATTGTCCCTAACGGAGTCACCTAGTGCAG,11500 fluorescence intensity (a.u.)
2,TTAAATTTAATTCCTCGCGAGGTGCTCCCACACTGTGGAACGGAGTCACCTAGTGCAG,10500 fluorescence intensity (a.u.)
3,TGTAATTAGTACTTGAAAGAATTAACTTGTTGAACATGATCGGAGTCACCTAGTGCAG,36100 fluorescence intensity (a.u.)
4,AGTAGGATTGGTGTTGATGGCCCAAGCAGCTCTAAGGCGACGGAGTCACCTAGTGCAG,8570 fluorescence intensity (a.u.)
5,TTCGCCAATCTAGTAATTAATCTAGTACATGCGTTGTTCCCGGAGTCACCTAGTGCAG,15800 fluorescence intensity (a.u.)
6,AAAGATTGAACATCCTTTAGTAATATCAAGGGTGTGTTTACGGAGTCACCTAGTGCAG,14100 fluorescence intensity (a.u.)
7,AGTTCGTAATTAAAATGTGGTACGGTAAAGTGAATCAACCCGGAGTCACCTAGTGCAG,7060 fluorescence intensity (a.u.)
8,GATCAATGATATATACAATCTTATTAGCAAGATACGCATCCGGAGTCACCTAGTGCAG,3640 fluorescence intensity (a.u.)
9,ATTTATAATACTAAATTAGTTAATTAAATATATTTTCATACGGAGTCACCTAGTGCAG,8210 fluorescence intensity (a.u.)
10,TCGTTGTGACTGTGATGAGAACTATGTGCCGCCACAAGCTCGGAGTCACCTAGTGCAG,4260 fluorescence intensity (a.u.)
11,TTCATAACTACAGTAAACTGACCAACGCAAACCGCATCGACGGAGTCACCTAGTGCAG,4500 fluorescence intensity (a.u.)
12,TGTTGTTGTGGTGGTGGTGGTGGTGGTAGTGCGTGAGTGACGGAGTCACCTAGTGCAG,7420 fluorescence intensity (a.u.)
13,ATGGGTGATTAATCCTAGAATAATGTATCTAGACAGAATCCGGAGTCACCTAGTGCAG,4120 fluorescence intensity (a.u.)
14,GGGGATTAACTGCCGTTGTATAGATCAGACAGATAGACGACGGAGTCACCTAGTGCAG,7980 fluorescence intensity (a.u.)
15,CGTGCTAATTAGGATTATTATTTGCGACTAATCACTACTCCGGAGTCACCTAGTGCAG,38200 fluorescence intensity (a.u.)
16,GCGAAATTAGTAATTTGTTTTGTTATTAATCTATGTTTAACGGAGTCACCTAGTGCAG,36400 fluorescence intensity (a.u.)
17,AATTCTAAAATGATTAAACTTAAGCCATATATAATCACACCGGAGTCACCTAGTGCAG,4710 fluorescence intensity (a.u.)
18,CTTAACTGTTATATTCTTTATGTTGGAATCTGTCCACGTACGGAGTCACCTAGTGCAG,14800 fluorescence intensity (a.u.)
19,ACTTCAGGAGATTGAAAACATTAGCTTTGGATCAGAGTGTCGGAGTCACCTAGTGCAG,6890 fluorescence intensity (a.u.)
20,TTTCTCAATGATTATATGGGTGAATTGCAGAGAATATACTCGGAGTCACCTAGTGCAG,14400 fluorescence intensity (a.u.)
21,GTATCAAATCTTGCCCATGATTTGACACTACCAATGATTTCGGAGTCACCTAGTGCAG,5680 fluorescence intensity (a.u.)

row,Sequence,binding signal
1,TATGATTATTAGAAATTTTAACAATTTTAAATCTTGCATGCGGAGTCACCTAGTGCAG,26300 fluorescence intensity (a.u.)
2,GATAAATTGACAATATTACCAAAATTTTAGTAAGATTGGCCGGAGTCACCTAGTGCAG,64900 fluorescence intensity (a.u.)
3,TACTAGTACTAGTTAATTGGGCTTGGAAAAGACGTACAGGCGGAGTCACCTAGTGCAG,3380 fluorescence intensity (a.u.)
4,CTTGACTGGCTTGTTCTCTCTCTCTCCCAGTAACCGATCTCGGAGTCACCTAGTGCAG,37300 fluorescence intensity (a.u.)
5,CCCCTTTGATTAGACCGAAAGCATCTTCTTTTGACAGTCACGGAGTCACCTAGTGCAG,17400 fluorescence intensity (a.u.)
6,TCTCTCTCTAATTAGTGGCTGAGCATTTAGAAGAGGTGGCCGGAGTCACCTAGTGCAG,11000 fluorescence intensity (a.u.)
7,ATCGGATTGGATCGGATATGGAGAGGAGGGAGGACGCGCTCGGAGTCACCTAGTGCAG,3710 fluorescence intensity (a.u.)
8,AATGTGATTGTCCACCCTGCAGCAACAAGCACCTTGAGCACGGAGTCACCTAGTGCAG,19600 fluorescence intensity (a.u.)
9,ATTAATGAGAGGATAATTTAGAACTCCATAGAATTCATCTCGGAGTCACCTAGTGCAG,13100 fluorescence intensity (a.u.)
10,ATATTATTATATTATAATTATACTGTATTTATATCTGATACGGAGTCACCTAGTGCAG,9100 fluorescence intensity (a.u.)
11,GAAATTGAAGGAGTTGTAGCTATCCAAATACATCAGCTTCCGGAGTCACCTAGTGCAG,6770 fluorescence intensity (a.u.)
12,ATAATTAATCCATGATTAGCCTATGTGATGCTGTAGTAAACGGAGTCACCTAGTGCAG,29100 fluorescence intensity (a.u.)
13,ACCAAATTATCACTTTGCATCACGGCAACTATTGTTGCTCCGGAGTCACCTAGTGCAG,19500 fluorescence intensity (a.u.)
14,ATGATCTTGAATGAATGAATGAATGAATACGTTGTCACACCGGAGTCACCTAGTGCAG,4130 fluorescence intensity (a.u.)
15,AGATAGATAGATATATTTATCCGAGTCCTCCAAGAACACCCGGAGTCACCTAGTGCAG,9400 fluorescence intensity (a.u.)
16,GTACCAATAATGTTGATTATGCGTTTATTATTCTCAATGACGGAGTCACCTAGTGCAG,10300 fluorescence intensity (a.u.)
17,GATTTCTTATTGATTGTTGATCCCACGTGAATAGATAGTACGGAGTCACCTAGTGCAG,12500 fluorescence intensity (a.u.)
18,TTAAATTGTTAATACCTCTGTATATCATCCGATCTACGTACGGAGTCACCTAGTGCAG,19600 fluorescence intensity (a.u.)
19,AGAAATGCAAATCATGGAATTGAGTTCAGCTGGTTAGTTCCGGAGTCACCTAGTGCAG,4020 fluorescence intensity (a.u.)
20,GCCTAATTGGGTCGGCATTAGGCCATCCAAACTAGGCCCACGGAGTCACCTAGTGCAG,29500 fluorescence intensity (a.u.)
21,CTCTCTAGTAATTATCCATGTGCTCGTCTGGTTGGATTGGCGGAGTCACCTAGTGCAG,5240 fluorescence intensity (a.u.)
